The results in this text go back to PubChem BioAssay AID485344 (National Center for Advancing Translational Sciences (NCATS), 2010).

Each structure is given as a SMILES string. Out of some 340,000 compounds screened, about 6,900 (2%) were called active. No stated cut-off is given here; in the data, active means inhibition above about 30%; inactive means below that, where a call was filed. The list shows a part of the results, in another mix than the full data. The source gives no active or inactive call for entries shown without one.

Sequence of UniProt P14416 (P14416 whole entry, looked up): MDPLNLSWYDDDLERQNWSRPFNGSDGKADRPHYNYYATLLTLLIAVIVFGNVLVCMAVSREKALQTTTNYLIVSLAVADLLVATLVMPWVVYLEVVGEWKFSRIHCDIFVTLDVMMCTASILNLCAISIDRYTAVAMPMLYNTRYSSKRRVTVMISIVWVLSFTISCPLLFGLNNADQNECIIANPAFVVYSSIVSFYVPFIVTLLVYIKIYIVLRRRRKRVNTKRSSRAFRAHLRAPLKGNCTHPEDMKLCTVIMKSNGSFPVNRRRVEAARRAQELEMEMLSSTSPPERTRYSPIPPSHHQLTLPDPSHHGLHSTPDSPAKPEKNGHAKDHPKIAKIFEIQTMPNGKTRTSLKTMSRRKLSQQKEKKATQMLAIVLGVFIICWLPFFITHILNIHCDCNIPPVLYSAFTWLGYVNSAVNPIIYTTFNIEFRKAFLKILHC

In the experiment the target is D(2) dopamine receptor (Homo sapiens) (UniProt P14416). Kind of experiment: HTS Assay for Allosteric Antagonists of the Human D2 Dopamine Receptor: Primary Screen for Antagonists. Further: 0% is about no effect. The settings on record: HEK293 TREx D2 cells, calcium flux, dopamine EC80; at 10 µM; stronger effect = higher value. A digest of the protocol:
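Tetracycline-induced HEK293 TREx cells expressing D2 receptor forced-coupled to calcium signalling, loaded with no-wash calcium dye. Compounds added and calcium flux read 180 s, then dopamine added at EC80 and read a further 180 s.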
Broadly, the inhibition is the change of the read-out against control, counted positive when it falls. Take `CCOc1ccc(CCNC(=O)CSc2nnnn2-c2ccccc2)cc1OCC`: the inhibition is -22%.
With `Cc1c(Cl)cccc1-n1ncc(C(=O)NC2CCCCC2)c1C1CCN(C(=O)OC(C)(C)C)CC1` the figure was -9.81%; with `CCOC(=O)c1cccc(NC(=O)c2oc3c(c2C)-c2nn(CC)cc2CC3)c1`, -22.6%; with `COc1cccc(NC(=O)/C=C/c2ccc(S(=O)(=O)N3CCOCC3)cc2)c1`, active: 47.3%.
The same measure for `COc1ccc(C(=O)COC(=O)c2cc(-c3cccs3)nc3ccccc23)cc1`: -24.6%; for `COc1ccc(OC)c(Nc2sc(C(=O)c3ccccc3)c(N)c2S(=O)(=O)c2ccccc2)c1`: -1.18%.
For the compound `O=C(Cn1ncc2c([nH]c3ccccc32)c1=O)NCCCN1CCN(c2ccccc2)CC1`, the inhibition was active: 103%.
The same measure for `O=c1oc2ccccc2c(N2CCN(c3ccc(F)cc3)CC2)c1CN1CCCC1`: -11.4%; for `Cc1cccc(N2CCN(S(=O)(=O)c3cc(C(=O)Nc4ccc(Oc5ccccc5)cc4)ccc3F)CC2)c1C`: -13.7%; for `Cc1ccccc1NC(=O)Cn1c(=O)n(CCc2ccccc2)c(=O)c2ccccc21`: 24.4%.
With `CN(Cc1ccccc1)S(=O)(=O)c1ccc(NC(=O)c2cc(=O)c3ccccc3o2)cc1` the figure was 3.81%; with `CCOc1ccc(/C=C/c2nc(C#N)c(NC(C)c3ccccc3)o2)cc1` (stereo not given), -0.0404%.
For `COc1ccc(C)cc1NC(=O)Nc1cccc(OCc2cc(=O)n3ccc(C)cc3n2)c1`, the inhibition is -22.3%.
Consider `Cc1ccccc1OCC(=O)NCC(c1ccc(Cl)cc1)N1CCCCC1` (stereo not given), for which the inhibition is 9.6%.
For the compound `CC(=O)N1CCc2cc(Br)cc(S(=O)(=O)N3CCC(C(=O)Nc4ccc(C(C)C)cc4)CC3)c21`, the inhibition is 23.2%.
On to `CCOC(=O)c1ccc(-n2c(CCC(=O)O)ccc2-c2ccccc2)cc1`, for which the inhibition is -11.9%.
With `COc1ccc(C(=O)CC2(O)C(=O)N(Cc3cccc(C(F)(F)F)c3)c3ccccc32)cc1` (stereo not given) the figure was 4.14%.
For `COc1ccc(N2CCN(S(=O)(=O)c3ccc(-c4ccno4)cc3OC)CC2)cc1`, the inhibition came to 9.99%.
With `CC(C)Cc1cc(CN2CCCC(CO)(Cc3cccc(Cl)c3)C2)[nH]n1` (stereo not given) the figure was active: 53.5%; with `COc1cccc(C(=O)N2c3ncnn3C3(CCCCC3)[C@@H]3CCCC[C@@H]32)c1`, 10.1%; with `CCCCc1ccc(NC(=O)c2ccc3c(c2)CCN3S(=O)(=O)CC)cc1`, -12%.
In the case of `CCc1ccc(/C=N/NC(=O)c2cc(-c3ccccc3OC)nc3ccccc23)s1`, the inhibition was active: 35.2%.
The same measure for `Cc1cccc(C)c1C(OCCN(C)C)C1CCCCC1` (stereo not given): active: 89.4%.
With `COC(=O)c1ccc(NC(=O)CCCC(=O)OCC(=O)c2ccc(Cl)cc2)cc1`, the inhibition was -9.49%.
With `COc1ccc(C)cc1NS(=O)(=O)c1c(C(=O)N2CCC(C)CC2)c(C)n(C)c1C` the figure was 14.6%; with `Cc1ccc(NC(=O)c2oc3ccc4c(c3c2C)C(=O)CC(C)(C)O4)c(C)c1`, 2%; with `O=C(COc1ccccc1)NCC(c1ccc(Cl)cc1)N1CCOCC1` (stereo not given), -10.1%.
With `Cc1ccc(-c2noc(-c3ccc(N4CCN(C)CC4)c([N+](=O)[O-])c3)n2)cc1`, the inhibition was -2.99%.
With `Cc1coc2c1c(C)cc1oc(=O)c(Cc3ccccc3)c(C)c12` the figure was active: 42.8%; with `COc1ccc(CCNC(=O)c2cccc(Nc3nc4ccccc4nc3-n3nc(C)cc3C)c2)cc1OC`, -2.84%.
The same measure for `CCOc1c(Br)cc(C2CC(=O)Nc3cc4c(cc32)OCO4)cc1OC` (stereo not given): 10.5%; for `O=C(CSc1n[nH]c(-c2ccc(F)cc2)n1)NCc1ccccc1Cl`: 8.26%.
The same measure for `NC1=NC(c2cccc(Cl)c2)n2c(nc3ccccc32)N1` (stereo not given): 9.15%; for `CCOc1ccc2c(c1)c(=O)c(S(=O)(=O)c1ccc(F)cc1)cn2CC(=O)Nc1ccccc1C`: -3.11%.
For `CCCS(=O)(=O)Nc1cccc(-c2cn3ccc(C)cc3n2)c1`, the inhibition is -7.84%.
Regarding `CCOC(=O)c1cnn(-c2ccc(C(=O)Nc3ccc(C(C)=O)cc3)cc2)c1N`, the inhibition was -21.9%.
The same measure for `CCOC(=O)c1c(S(=O)(=O)N2CCCC(C(=O)NCc3cccc(C)c3)C2)c(C)n(C)c1C` (stereo not given): 5.89%.
As to `COc1cc2cc(CNc3ccccc3)c(=O)n(CC(=O)Nc3ccc(C)c(Cl)c3)c2cc1OC`, the inhibition was 13.2%.
With `COCCN(Cc1ccco1)C(=O)c1cc2c(=O)[nH]c3ccc(C)cc3c2s1` the figure was -2.19%; with `N#Cc1nc(-c2ccc(COc3ccccc3)o2)oc1N1CCN(c2ccccc2)CC1`, 3.45%; with `CCc1ccc(CNC(=O)c2cnc3sc(N4CCOCC4)nn3c2=O)cc1`, -1.34%.
The same measure for `Cc1cccc(OC(=O)c2cc(-c3ccc(C)c(C)c3)on2)c1`: -5.67%.
Consider `COc1ccc(Cl)cc1NC(=O)N1CCN(Cc2cc(=O)n3nc(-c4ccccc4)sc3n2)CC1`, for which the inhibition is -0.905%.
The same measure for `O=C1CCSC2(C(=O)N(Cc3ccc(F)cc3)c3ccccc32)N1c1ccc(Cl)cc1` (stereo not given): 10.5%; for `CC(=O)Nc1ccc2nc3c(=O)n(C)c(=O)n(C)c3nc2c1C`: -26.1%.
Turning to `CCOC(=O)Cn1c(=O)oc2cc(S(=O)(=O)N3CCN(c4cccc(C)c4)C(C)C3)ccc21` (stereo not given), the inhibition is 11.6%.
With `COc1ccccc1CNC(=O)C(C)n1c(=O)cc(-c2ccccc2)c2c(C)nn(C)c21` (stereo not given) the figure was 9.76%; with `Cn1c(CN2CCN(c3ccccc3NS(C)(=O)=O)CC2)nc2ccccc21`, active: 32.5%; with `CC(C)c1nn2c(=O)cc(COC(=O)c3cccs3)nc2s1`, -17.7%.
With `Cc1nc2cccnc2n1-c1cccc(C(=O)NCCN(C)C)c1` the figure was 7.18%; with `Nc1nc(CN2CCN(c3ccccc3)CC2)nc(Nc2ccc(Cl)cc2)n1`, active: 76.5%; with `Cc1cccc(NC(=O)CSc2nc3n[nH]c(C)c3c(=N)n2-c2cccc(Cl)c2)c1`, -2.98%.
With `C=CCc1cc(C)ccc1OCC(O)CN1CCN(c2ccccc2)CC1` (stereo not given) the figure was active: 79.9%; with `COc1ccc(OC)c(C2CC(=O)Nc3c2c(=O)[nH]c2nc4ccccc4n32)c1` (stereo not given), 12.4%.
With `CCOC(=O)C1CCN(CCC(=O)Nc2ccccc2OC)CC1`, the inhibition was 20.2%.
The same measure for `N#Cc1ccc(NC(=O)COCc2cc(-c3ccco3)on2)cc1`: 22.4%.
The same measure for `Cn1c(=O)c2c(nc(CN3CCN(c4ccccc4F)CC3)n2Cc2ccc(F)cc2)n(C)c1=O`: -3.4%.
In the case of `O=c1c(S(=O)(=O)c2ccccc2)cn(Cc2ccccc2)c2cc(N3CCCC3)c(F)cc12`, the inhibition is -1.53%.
For `CCOc1ccc(N(Cc2ccccc2)C(=O)c2nc(SC)ncc2Cl)cc1`, the inhibition is 15.3%.
With `Cc1nn(C)c2c1c(C(F)(F)F)cc(=O)n2Cc1ccc(Br)cc1F` the figure was 7.99%.
With `N#Cc1c(N2CCN(C(=O)c3ccco3)CC2)nc(-c2ccccc2)c2c1CCCC2` the figure was active: 31.7%; with `O=C(Cn1c(=O)c(CNc2ccccc2)cc2cc3c(cc21)OCCO3)Nc1ccccc1Cl`, -7.64%; with `CCc1ccc2oc(-c3ccc(C)c(NC(=O)Cc4ccccc4)c3)nc2c1`, -4.66%.
Regarding `CC(C)(C)OC(=O)N1CCC(c2c(C(=O)NCCN3CCOCC3)cnn2-c2cccc(Cl)c2)CC1`, the inhibition was 11.5%.
The same measure for `CCCOc1ccc(C(=O)N2CCC(c3nc4ccccc4s3)CC2)cc1`: -7.84%; for `O=C(C1CC1)N1CCc2cc(Br)cc(S(=O)(=O)Nc3ccc(F)c(F)c3)c21`: -10.1%.
With `CCc1ccc(/C=C(/C#N)c2nc(-c3ccc(C)cc3)cs2)cc1` the figure was -9.63%; with `O=S(=O)(NCC(c1ccco1)N1CCN(c2ccccc2)CC1)c1cc(F)ccc1F` (stereo not given), -1.96%; with `COCCNCCCCOc1ccccc1-c1ccccc1`, active: 92%.
On to `Cc1cc(C)cc(N2CCn3c2nc2c3c(=O)n(Cc3c(F)cccc3Cl)c(=O)n2C)c1`, for which the inhibition was 2.99%.
As to `O=C(NCCc1ccccc1)C1CCN(c2nc3ccccc3nc2C(F)(F)F)CC1`, the inhibition came out at 4.84%.
With `FC(F)(F)c1cc(Nc2nc3ccccc3c3nncn23)ccc1Cl` the figure was 13.7%; with `COCCn1c(SCC(=O)c2ccc(C)cc2)nc2cc(C(=O)NC3CCCC3)ccc2c1=O`, -0.202%.
With `CCCCCSc1nnc2c(n1)[nH]c1c(C)cccc12` the figure was 7.84%; with `CCCNC(=O)c1cnn(-c2ccc(C)c(C)c2)c1C1CCN(C(=O)OC(C)(C)C)CC1`, -4.84%.
With `Cc1c(C(=O)Nc2ccc(F)c(Cl)c2)sc2nc3n(c(=O)c12)CCC3` the figure was -11.2%; with `COc1ccc(Cl)cc1NC(=O)CSc1nc2c(oc3ccccc32)c(=O)n1Cc1ccco1`, -3.54%; with `Fc1ccccc1N1CCN(c2ncnc3onc(-c4ccc(Cl)cc4)c23)CC1`, -5.27%.
Consider `S=C(Nc1ccc(Cl)cc1Cl)NC1CCN(Cc2ccccc2)CC1`, for which the inhibition is active: 74.7%.
With `CCOC(=O)c1ccccc1NC(=O)CN1C(=O)CC(c2ccccc2)Sc2ccccc21` (stereo not given) the figure was -6.73%; with `CNS(=O)(=O)c1ccc(N=Cc2c(C)[nH]n(-c3ccc(C)cc3C)c2=O)cc1`, active: 42.3%; with `O=C(c1ccco1)N1CCN(Cc2cccc3ccccc23)CC1`, active: 76%.
With `CCCCOc1ccc(C(=O)NCc2cn3cccc(C)c3n2)cc1` the figure was 12.1%; with `Cc1cccc(-c2nc3scc(CCNS(=O)(=O)c4ccc(F)c(C(F)(F)F)c4)n3n2)c1`, 16.3%; with `Cc1ccc(C(=O)Nc2ccc(C(=O)O)cc2)cc1S(=O)(=O)N1CCC(C)CC1`, -18.8%.
On to `O=C(Nc1ccc(N2CCN(c3ccc(F)cc3)CC2)c(C(=O)O)c1)c1cccs1`, for which the inhibition was -18%.
On to `CCOc1cc2c(cc1OCC)C(CC(=O)O)N(C(=O)Nc1ccc(Br)c(C)c1)CC2` (stereo not given), for which the inhibition turned out to be 3.32%.
The same measure for `CCCCOc1ccc(C(=O)NCCc2sc3nc(-c4ccc(OC)cc4)nn3c2C)cc1`: 17.3%; for `O=C(NCc1ccc(Cl)cc1)C1CCC(CNS(=O)(=O)c2ccccc2)CC1` (stereo not given): -8.11%; for `CCN(CC)c1nn2c(=O)c(C(=O)NCCc3ccccc3C)cnc2s1`: 3.66%.
On to `CCOc1ccc(N(C)C(=O)C2CCN(S(=O)(=O)c3c(C)noc3/C=C/c3ccc(C)cc3)CC2)cc1`, for which the inhibition is -18.4%.
The same measure for `Cc1ccc(NC(=O)/C=C/c2ccco2)cc1F`: -18.1%.
With `CCOC(=O)c1c(NC(=O)C[n+]2ccccc2)sc2c1CCCC2` the figure was active: 45.8%; with `Cc1cccc(CN2CCN(CC(=O)NCCc3ccc(Cl)cc3)C2=O)c1`, -1.21%.
The same measure for `O=C(c1cccc(S(=O)(=O)N2CCOCC2)c1)N1CCN(S(=O)(=O)c2cccs2)CC1`: active: 41.6%.
